Laboratory results as given in the supplement of paper PMC11417369.
Some of the results follow.

tested on: PfSIP2 AP2 domain 1 (GST-tagged); test: gcPBM binding intensity (ln(normalized median fluorescence intensity)); higher = stronger DNA binding
Procedure, shortened: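 GST-tagged P. falciparum DNA-binding domains produced in E. coli were incubated for 1 h on an Agilent 4 × 180k array of primer-extended double-stranded 36-bp intergenic genomic probes with negative controls. Binding intensity is the highest Masliner-normalised natural-log median intensity across replicate spots of either probe orientation, with bound protein detected by Alexa488 anti-GST antibody at 488 nm.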

Sequence	gcPBM binding intensity (ln)
AAAAAGAAAATATATACACACCAAAAAAAAAAAAAA [CACACA_site5698]	6.73
TATTTGTGTATTTTTACACACATTAATATATTTATA [CACACA_site7562]	6.79
TGTACAAATTATACTTCGAACGAAGGGCATACATAT [XGTACX_negctrl_site37]	7.06
TATATATATATTATATGTACACATTTGTGAATTATT [XGTACX_site5848]	8.07
TATAGATAACAAAAGTGTACATGTTGTATACACATG [XGTACX_site3471]	7.01
AACAACTATTACTGCACACATTCTTACACTATATAA [CACACA_site654]	7.74
TATATATATAAACACACACACACACCCAAGCGTAGC [CACACA_site4210]	7.94
TATTCCTATATAAAGACACACATATGTAACTACGAT [CACACA_site4139]	6.98
TGTGTTATATATAAAGAAAAAAAAAAAAAATATATA [CACACA_negctrl_site567]	6.76
AAAAATTTAATTATTTGTACATAAAATACATTTCTG [XGTACX_site791]	6.81
AATACATCATTAAAATGTACATATATATATACATTA [XGTACX_site132]	6.96
ATTATAATAATGTGATGTACATTAATTGTCTTCCTA [XGTACX_site5404]	6.89
GAAATAAGGGTTATTTCACACATTGCATGTATTTTC [CACACA_site5752]	6.67
ATATATATTAATTTTGTGCACAAATGGAAATGTTTG [GTGCAC_site9971]	8.34
TTTTTTTTTTTTTTATGTACTAAAAAATGAAAAATA [XGTACX_site6812]	7.1
AAATACTTAACATTGGTGCATATTTGTAAAATTATT [GTGCAC_site9515]	10.7
TTTTGGCTTCTAATATTATACAAAATGGTAAGGAAA [TGCATGCA_negctrl_site169]	7.29
AGAATACAAAATTGCACACATATTGTGAAAATGTTA [CACACA_site4005]	6.97
ATGCAATAATAATATTGTACGCATATATTTTTTACT [XGTACX_site3384]	7.01

Sequence	gcPBM binding intensity (ln)
AAAAAAAAAAAAAAAACACACACATATATATAATAT [CACACA_site9038]	7.63
TTATAAAATATTTTTTGTACACATAATAGTAAGACT [XGTACX_site933]	7.13
AATACATGCTTATTTTAACACACAAATGGTAGTAAT [CACACA_site8154]	6.84
GATTATTTTATAAGTACACACATTTATCTATAATAA [CACACA_site7256]	7.33
GATTAATACACATTCTTCCGACATAATAAGAAAAAG [GTGCAC_negctrl_site7]	7.05
AACCATGTTAACAACGCATGTATATCTATGGGTTTA [TGCATGCA_site419]	6.72
CTTATATTTAGACACACACACAATAAAATGAAAAAA [CACACA_site1031]	7.07
CCATAATATTATAGACGTACGAATATATATAAAAGA [XGTACX_site7295]	7.2
CACCCACACCAACACACACACATATATAATATATAT [CACACA_site595]	7.44
TTTTTTAAATGTCATTGTACATAATTCAATATATAA [XGTACX_site5]	7
AGCTAATATATCTTATATTCATATAAAAAAATATAT [CACACA_negctrl_site1786]	6.89
TGACTTTTTTTATGTTGTACTTATTATAAAAAAAAT [XGTACX_site7736]	7.33
GTGTGATATAATTTTTTTAGAGCTTTATAATATTAT [CACACA_negctrl_site233]	7.15
TATGTTGATGATATTACACACCCAATGAGAAAAGGA [CACACA_site7060]	7.34
CAACCATTTGTAGGTAAACACACATTATTATTAATA [CACACA_site8842]	6.92
AAGTTACAGAATATCACACATAAATTATCTGTATAT [CACACA_site5116]	6.77
GTTAAGCAATATATATGTACTTATGGAATAGAAAAA [XGTACX_site3693]	7.3
TCAATTAATTATTTTTGTACACAAGAATTACTGAAT [XGTACX_site6401]	6.85
TTTGTCAAATAATATTGTACTAAAAAATTTTGCCTT [XGTACX_site7485]	7.01

Sequence	gcPBM binding intensity (ln)
TATTTGTAATATAACACACACAAAAAAAGACTCGGA [CACACA_site1681]	7.06
ATACACACAGCCTAAACATGCATATAGAAAAAAGAA [TGCATGCA_site1028]	7.4
TGTTTATACATCAGGTGTACGCAAAATAATTGTATG [XGTACX_site206]	7.67
TTTATTTACTATTAAAGTACTAAATCATATAATTAT [XGTACX_site2580]	6.83
TATACATATACATATACACACACACCCATAAATAAA [CACACA_site8372]	7.71
TTAACACATGCTTGGTCACACACGTATGCATATTTA [CACACA_site2127]	7.2
TTAGTTTATTGGTACTGTACTTTTTTTTTCTCCATT [XGTACX_site8618]	7.17
TATCATATATGAAGGTGTACGATTTATTATATAAAT [XGTACX_site7010]	7.04
ATTTTTGAACGGTACAGTACAGAATTTAATTAACCC [XGTACX_site47]	6.78
TTATTTAAAATTTTTATGCGTATATATATAGGAACA [CACACA_negctrl_site388]	7.55
CACAAAATAAATTAAACACACAACATCATAGATGTA [CACACA_site4619]	6.65
AATTTTTATTTGTACACACATACATATATATTATAT [CACACA_site993]	7.41
TTTTTATTTACACTTTTTATTTATATATTATGTACG [CACACA_negctrl_site158]	6.98
TGTCATCATCTTAAATGTACAAAAAGGAAATATAAA [XGTACX_site1529]	7.06
TTTATATATTTCATAATACACACGAAAAAAAAAAAA [CACACA_site2970]	6.98
ATAAATAATATAAATACACACTAAAAAAAATATATA [CACACA_site4456]	6.78
ATATAATCAGCTTCTCTTTTATGCTAAAAAAAAAAA [CACACA_negctrl_site1310]	6.97
TTTTTATTAAGACATGCATGGAAACGCACTATTTTA [TGCATGCA_site999]	9.74
